Measurements: PubChem BioAssay AID540317 (National Center for Advancing Translational Sciences (NCATS), 2011)
Several values for one entry are separate records, joined by “and”; a condition that tells them apart may be missing. Equal values may be shown once. The campaign covered roughly 390,000 compounds. About 2,200 (0.56%) were called active. Inconclusive results, whose numbers are uncertain, are shown with a selection of clear calls. Calls come from the whole dose curve; as a rule, active = well fitted inhibition curve with a large enough effect; inconclusive = small, poorly fitted or top-dose-only effect; inactive = no such curve, though single readings can be large or run the other way. A potency beside an inconclusive call is a rough fit, not a confirmed value.

target: Chromobox protein homolog 1 (Homo sapiens) (UniProt P83916); assay: HTS for Inhibitors of HP1-beta Chromodomain Interactions with Methylated Histone Tails; details: AlphaScreen HP1-beta / biotin-H3K9me3 peptide binding; series mostly up to 114 µM; activity change, negative = inhibition: at the top concentration; note: nearly all actives have a fitted effect of over 70% in size
Sequence of UniProt P83916 (P83916 whole entry, looked up): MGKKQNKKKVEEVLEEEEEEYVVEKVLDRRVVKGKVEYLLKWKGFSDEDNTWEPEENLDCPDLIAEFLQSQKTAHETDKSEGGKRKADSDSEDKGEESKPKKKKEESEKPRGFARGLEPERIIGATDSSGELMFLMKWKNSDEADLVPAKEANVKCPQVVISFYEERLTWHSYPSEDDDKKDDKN
In short: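 AlphaScreen: HP1-beta (50 nM) preformed 30 min with biotin-H3(1-18)K9me3 peptide (50 nM) in PBS pH 7.4, 0.01% Tween-20. Compound added for 30 min at RT, then streptavidin donor/nickel chelate acceptor beads (10 ug/mL) for 30 min.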
Potency is the fitted concentration of half-maximal effect; tags give direction and shape of the fitted curve.

**Q.** CCOc1ccc(/C(O)=C2\C(=O)C(=O)N(c3ccc(OC)cc3)C2c2ccccc2[N+](=O)[O-])cc1 (configuration not stated) was tested. Which Potency did it give?
**A.** inconclusive: 31.6 µM [inhibitor, partial curve]

**Q.** COc1cccc(CN2CCN(C(c3ccccc3)c3ccccc3)CC2)c1O was tested. Which Potency did it give?
**A.** inconclusive: 39.8 µM [inhibitor, partial curve]

**Q.** With COc1ccc(OC)c(N)c1 as the compound, how does the Potency read?
**A.** inconclusive: 20 µM [inhibitor, full curve]

**Q.** Which Potency does the source give for Cc1ccc(C)c(S(=O)(=O)N/N=C/c2ccc(N(C)C)cc2)c1 here?
**A.** inconclusive: 39.8 µM [inhibitor, partial curve]

**Q.** Which “activity change, negative = inhibition” value does the source give for CCc1ccccc1NC(=O)CNC(=O)CCNC(=O)Nc1ccccc1 here?
**A.** inactive: 4.45%

**Q.** Which “activity change, negative = inhibition” value does the source give for N=C1/C(=C\c2ccc(OC(=O)c3ccc(F)cc3)cc2)C(=O)N=C2SC(N3CCOCC3)=NN12 here?
**A.** inactive: 39.5%

**Q.** Which “activity change, negative = inhibition” value does the source give for CCOC(=O)[C@H]1[C@H]2COc3ccc(Cl)cc3[C@@H]2N2C(=O)CN(C)C(=O)[C@@]12C here?
**A.** inactive: 27.9%

**Q.** With CC1CCN(c2cc(N3CCOCC3)c([N+](=O)[O-])cc2F)CC1 as the compound, how does the Potency read?
**A.** inconclusive: 44.7 µM [inhibitor, partial curve, poor fit]

**Q.** Clc1cccc(N/N=C/c2ccc(N3CCOCC3)s2)c1 was tested. Which “activity change, negative = inhibition” value did it give?
**A.** inactive: 21%

**Q.** Cc1ccc(N2C(=O)[C@@H]3[C@H](C2=O)[C@H]2C=CC=NN2[C@@H]3C(=O)Nc2ccccc2)cc1 was tested. Which “activity change, negative = inhibition” value did it give?
**A.** inactive: -17.1%

**Q.** How did the Potency turn out when OCCN(Cc1ccccc1)Cc1ccc(Cl)cc1Cl was run?
**A.** inconclusive: 56.2 µM [inhibitor, partial curve]

**Q.** How did the Potency turn out when O=C1SC(c2ccccc2)=C/C1=C\N1CCCCC1 was run?
**A.** inconclusive: 50.1 µM [inhibitor, partial curve]

**Q.** With CC(=O)c1cc2c(cc1NC(=O)CN1CCCCC1C)OCO2 (configuration not stated) as the compound, how does the Potency read?
**A.** inconclusive: 79.4 µM [inhibitor, single point]

**Q.** How did the Potency turn out when Cc1ccc(SCC(=O)Nc2ccc(F)cc2[N+](=O)[O-])cc1C was run?
**A.** active: 50.1 µM

**Q.** Which Potency does the source give for COc1ccc(CN2CCCN(C)CC2)c(OC)c1C here?
**A.** inconclusive: 15.8 µM [inhibitor, full curve]

**Q.** CCn1c(=O)c2cc(C(=O)N(CC(C)C)CC(C)C)sc2c2ccccc21 was tested. Which “activity change, negative = inhibition” value did it give?
**A.** inactive: 40.7%

**Q.** With CCCS(=O)(=O)Nc1c(C(=O)OC)[nH]c2ccccc12 as the compound, how does the “activity change, negative = inhibition” value read?
**A.** inactive: 23.8%

**Q.** How did the Potency turn out when COc1ccc(CCNC(=O)CSc2nc(N)c3c(C)c(C)oc3n2)cc1OC was run?
**A.** inconclusive: 89.1 µM [inhibitor, single point]

**Q.** For O=C(CCc1nnc(-c2ccccc2)o1)NCC1CCN(C2CCCC2)CC1, which “activity change, negative = inhibition” value is on record?
**A.** inactive: 3.99%

**Q.** How did the Potency turn out when Cc1ccc2[nH]c3c(c2c1)CN(C(=O)CN1CCCc2ccccc21)CC3 was run?
**A.** inconclusive: 39.8 µM [inhibitor, partial curve]

**Q.** For COc1ccc(CC(=O)N2CCN(S(=O)(=O)c3cccs3)CC2)cc1OC, which “activity change, negative = inhibition” value is on record?
**A.** inactive: 18.1%

**Q.** How did the “activity change, negative = inhibition” value turn out when CNC(=O)/C(C#N)=C/c1c(N2CCN(c3ccccc3)CC2)nc2c(C)cccn2c1=O was run?
**A.** inactive: -15.5%

**Q.** With O=C(CCc1ccccc1)NC1(Cc2ccccc2)CCN(CCCc2ccccc2)C1=O (configuration not stated) as the compound, how does the “activity change, negative = inhibition” value read?
**A.** inactive: 19.9%

**Q.** With Cc1cccc(NC(=O)CNC(=O)COc2cc(F)ccc2[N+](=O)[O-])c1C as the compound, how does the Potency read?
**A.** inconclusive: 8.91 µM [inhibitor, full curve]

**Q.** How did the Potency turn out when CC(C)Cc1nnc(NC(=O)c2cc(-c3ccccc3)nc3ccccc23)s1 was run?
**A.** inconclusive: 28.2 µM [inhibitor, single point]

**Q.** COc1ccccc1NS(=O)(=O)c1cc(N2Cc3ccccc3C2=N)ccc1N1CCOCC1 was tested. Which Potency did it give?
**A.** inconclusive: 39.8 µM [inhibitor, partial curve]

**Q.** O=C1C(Cl)=C(Nc2cccc(O)c2)C(=O)N1Cc1ccccc1 was tested. Which Potency did it give?
**A.** inconclusive: 31.6 µM [inhibitor, full curve]

**Q.** O=C(c1nc(-c2ccc(Cl)cc2)n2c1CCCCC2)N1CCN(c2ccccc2F)CC1 was tested. Which Potency did it give?
**A.** inconclusive: 50.1 µM [inhibitor, partial curve, poor fit]

**Q.** COc1cc(/C=N/N2C(=O)CSC2=S)ccc1O was tested. Which Potency did it give?
**A.** inconclusive: 10 µM [inhibitor, partial curve, poor fit]

**Q.** Which Potency does the source give for CC1CCCC/C1=N\Nc1ccc(S(N)(=O)=O)cc1[N+](=O)[O-] (configuration not stated) here?
**A.** inconclusive: 44.7 µM [inhibitor, partial curve]

**Q.** For CCOC(=O)C1CCN(C(=O)Nc2ccc3nc(-c4ccco4)c(-c4ccco4)nc3c2)CC1, which Potency is on record?
**A.** active: 39.8 µM

**Q.** For COc1cc(/C=C2\SC(=O)N(CC(=O)Nc3ccccc3F)C2=O)cc(Cl)c1O, which “activity change, negative = inhibition” value is on record?
**A.** inactive: 32.3%

**Q.** Which “activity change, negative = inhibition” value does the source give for O=S(=O)(Cc1noc(-c2ccc(Cl)cc2)n1)Cc1ccco1 here?
**A.** inactive: -1.54%

**Q.** For CC1C(=O)Nc2ccccc2N1C(=O)C1CC1 (configuration not stated), which “activity change, negative = inhibition” value is on record?
**A.** inactive: 22%

**Q.** For Cc1ccc(C(=O)OCC(=O)c2c(N)n(C)c(=O)n(C)c2=O)cc1S(=O)(=O)N1CCCCC1, which “activity change, negative = inhibition” value is on record?
**A.** inactive: 4.32%

**Q.** For O=C(CN1CCCc2ccccc21)Nc1cc(S(=O)(=O)N2CCCC2)ccc1Cl, which “activity change, negative = inhibition” value is on record?
**A.** inactive: 32.7%

**Q.** Cn1cccc1/C=C1\SC(=S)N(Nc2ccccc2)C1=O was tested. Which Potency did it give?
**A.** inconclusive: 25.1 µM [inhibitor, partial curve]

**Q.** How did the Potency turn out when CCCCCCCCOC(=O)c1cc([N+](=O)[O-])c(Sc2ncnc3nc[nH]c23)c([N+](=O)[O-])c1 was run?
**A.** inconclusive: 25.1 µM [inhibitor, single point]

**Q.** With O=C(NCc1ccccc1)C1=C[C@H](c2coc3ccccc3c2=O)C[C@H](OCCCCO)O1 as the compound, how does the Potency read?
**A.** inconclusive: 89.1 µM [inhibitor, single point]

**Q.** How did the “activity change, negative = inhibition” value turn out when Cc1ccc(C)c(N2CCN(CCCNC(=O)C3COc4ccccc4C3)CC2)c1 (configuration not stated) was run?
**A.** inactive: 10.6% [at 57 µM]

**Q.** How did the Potency turn out when Cc1cc(NC(=O)CN(C)CCOc2ccccc2)ccc1Br was run?
**A.** inconclusive: 25.1 µM [inhibitor, partial curve]

**Q.** COc1ccc(/C=C2\Sc3ccc(C(=O)N4CCCC4)cc3N(C)C2=O)cc1OC was tested. Which “activity change, negative = inhibition” value did it give?
**A.** inactive: 25.1%

**Q.** CCN1CCC(N(Cc2ccc3c(c2)OCO3)C(=O)Nc2cc(Cl)ccc2C(=O)OC)CC1 was tested. Which “activity change, negative = inhibition” value did it give?
**A.** inactive: -1.95%

**Q.** For CCOC(=O)c1cc(CC)sc1/N=C/c1c(O)ccc2ccccc12, which Potency is on record?
**A.** inconclusive: 44.7 µM [inhibitor, partial curve, poor fit]

**Q.** With CC(C)(C)c1ccc(C(=O)Nc2ccc3c(c2)C(=O)NC3=O)cc1 as the compound, how does the “activity change, negative = inhibition” value read?
**A.** inactive: 38.8%

**Q.** With COc1cc(OC)c2c(-c3ccccc3)cc(=O)oc2c1C(CCN1CCCCC1)c1ccc(N(C)C)cc1 (configuration not stated) as the compound, how does the Potency read?
**A.** inconclusive: 15.8 µM [inhibitor, full curve] and inconclusive: 15.8 µM [inhibitor, full curve, poor fit]

**Q.** How did the “activity change, negative = inhibition” value turn out when COC(=O)c1c(NC(=O)CN2C(=O)C(=O)N(CC(C)C)C2=O)sc2c1CCCCC2 was run?
**A.** inactive: -17.9%

**Q.** With CCOc1ccccc1NC(=O)Cc1ccccc1OC as the compound, how does the “activity change, negative = inhibition” value read?
**A.** inactive: 9.43%

**Q.** CCCC(=O)Nc1nnc(SCC(=O)N2CCCCC2)s1 was tested. Which Potency did it give?
**A.** inconclusive: 89.1 µM [inhibitor, single point]

**Q.** How did the Potency turn out when N#Cc1nc(COc2ccccc2Cl)oc1N1CCCC1 was run?
**A.** inconclusive: 35.5 µM [inhibitor, partial curve]

**Q.** Cc1ccc(C(=O)CSC2=C(C#N)C(c3ccco3)C3=C(CC(C)(C)CC3=O)N2)cc1 (configuration not stated) was tested. Which “activity change, negative = inhibition” value did it give?
**A.** inactive: 1.58%

**Q.** For O=C(C=Cc1ccccc1)NCCNC(=O)C=Cc1ccccc1, which “activity change, negative = inhibition” value is on record?
**A.** inactive: 28.1%

**Q.** Cc1ccc2oc(-c3ccco3)nc2c1 was tested. Which Potency did it give?
**A.** inactive

**Q.** Cc1cccc(OCC(=O)N2CCC(N3CCOCC3)CC2)c1 was tested. Which Potency did it give?
**A.** inconclusive: 17.8 µM [inhibitor, partial curve, poor fit]

**Q.** How did the Potency turn out when Nc1nc(SCC(=O)c2ccc(Oc3ccccc3)cc2)n[nH]1 was run?
**A.** inconclusive: 70.8 µM [inhibitor, single point]

**Q.** For COc1ccc(-c2nc(CS(=O)CC(=O)NCc3ccc(F)cc3)c(C)o2)cc1OC (configuration not stated), which “activity change, negative = inhibition” value is on record?
**A.** inactive: 29.3%

**Q.** Cc1ccc(S(=O)(=O)Nc2ncccn2)cc1 was tested. Which “activity change, negative = inhibition” value did it give?
**A.** inactive: 28.3%

**Q.** For Cc1ccc(Nc2nnns2)cc1C, which Potency is on record?
**A.** inconclusive: 25.1 µM [inhibitor, partial curve, poor fit]

**Q.** With CC(=O)Oc1ccc(N(C(C)=O)S(=O)(=O)c2ccc(C)cc2C)c2ccccc12 as the compound, how does the Potency read?
**A.** inconclusive: 31.6 µM [inhibitor, single point]

**Q.** Cc1cccc(Nc2nc(N)c([N+](=O)[O-])c(NCc3ccco3)n2)c1 was tested. Which Potency did it give?
**A.** inconclusive: 50.1 µM [inhibitor, partial curve]

**Q.** How did the Potency turn out when CCOc1ccc(-c2csc(NNC3=NCCCCC3)n2)cc1 was run?
**A.** inconclusive: 22.4 µM [inhibitor, full curve]

**Q.** With C=CCn1c(O)c(N=NC(=S)Nc2cccc(C)c2)c2ccccc21 as the compound, how does the Potency read?
**A.** inconclusive: 4.47 µM [inhibitor, full curve, poor fit]

**Q.** Cc1ccc2c(CC(=O)NC3CCCc4ccccc43)coc2c1 (configuration not stated) was tested. Which “activity change, negative = inhibition” value did it give?
**A.** inactive: 14.9%

**Q.** Which Potency does the source give for Cc1cc(C)cc(N=c2c([N+](=O)[O-])nn(-c3ccc4c(c3)OCCO4)n2O)c1 here?
**A.** inconclusive: 15.8 µM [inhibitor, full curve]

**Q.** For COC(=O)c1ccc(N2NC(=O)/C(=C/c3ccc(-c4ccc(Cl)c(C(=O)O)c4)o3)C2=O)cc1, which Potency is on record?
**A.** inconclusive: 39.8 µM [inhibitor, partial curve]

**Q.** Which “activity change, negative = inhibition” value does the source give for O=C(c1cccs1)N(Cc1cccnc1)c1nc2ccc(F)cc2s1 here?
**A.** inactive: 36%

**Q.** With CC1(c2ccc3c(c2)OCO3)NC(=O)N(CC(=O)c2ccc[nH]2)C1=O (configuration not stated) as the compound, how does the “activity change, negative = inhibition” value read?
**A.** inactive: 25.9%

**Q.** With COc1ccc(N2CCN(CC(O)COC(C)(C)C)CC2)cc1 (configuration not stated) as the compound, how does the Potency read?
**A.** inconclusive: 20 µM [inhibitor, full curve, poor fit]

**Q.** Cc1ccc(C(=O)/C=C/c2ccc3c(c2)OCCO3)c(O)c1 was tested. Which Potency did it give?
**A.** inconclusive: 35.5 µM [inhibitor, partial curve]

**Q.** Cn1c(O)c(N=NC(=O)c2ccccc2O)c2ccccc21 was tested. Which Potency did it give?
**A.** inconclusive: 5.01 µM [inhibitor, full curve, poor fit]

**Q.** Nc1nc(-c2ccccc2)c(C(=O)Nc2ccccc2)s1 was tested. Which “activity change, negative = inhibition” value did it give?
**A.** inactive: 26.8%

**Q.** How did the Potency turn out when O=C(O)c1cccc(NC(=O)c2cn(-c3ccccc3)nc2-c2ccncc2)c1 was run?
**A.** inconclusive: 35.5 µM [inhibitor, single point]
